According to PubChem BioAssay AID488969 (Vanderbilt High Throughput Screening Facility, 2010):
Whole data set: some 110,000 compounds, median “z-score” near -0.1, cut for the highest 2% near 2. The list shows a part of the results. Activity calls are given as the source filed them.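 The calls were made as follows: active = z-score in the third read window above 3 or below -3; inactive = the rest.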

Molecular target: Metabotropic glutamate receptor 8 (Rattus norvegicus) (UniProt P70579)
Test: rat mGluR8 modulators via GIRK flux, primary screen, cell-based, thallium flux, HTS (AID 488969)
Details: HEK293 rat mGluR8, GIRK (G protein-gated inwardly rectifying potassium channel) thallium flux, FluoZin2; at 10 µM; stronger effect = higher value; submaximal glutamate (EC20) added with thallium

Chain of UniProt P70579 (P70579 whole entry, looked up): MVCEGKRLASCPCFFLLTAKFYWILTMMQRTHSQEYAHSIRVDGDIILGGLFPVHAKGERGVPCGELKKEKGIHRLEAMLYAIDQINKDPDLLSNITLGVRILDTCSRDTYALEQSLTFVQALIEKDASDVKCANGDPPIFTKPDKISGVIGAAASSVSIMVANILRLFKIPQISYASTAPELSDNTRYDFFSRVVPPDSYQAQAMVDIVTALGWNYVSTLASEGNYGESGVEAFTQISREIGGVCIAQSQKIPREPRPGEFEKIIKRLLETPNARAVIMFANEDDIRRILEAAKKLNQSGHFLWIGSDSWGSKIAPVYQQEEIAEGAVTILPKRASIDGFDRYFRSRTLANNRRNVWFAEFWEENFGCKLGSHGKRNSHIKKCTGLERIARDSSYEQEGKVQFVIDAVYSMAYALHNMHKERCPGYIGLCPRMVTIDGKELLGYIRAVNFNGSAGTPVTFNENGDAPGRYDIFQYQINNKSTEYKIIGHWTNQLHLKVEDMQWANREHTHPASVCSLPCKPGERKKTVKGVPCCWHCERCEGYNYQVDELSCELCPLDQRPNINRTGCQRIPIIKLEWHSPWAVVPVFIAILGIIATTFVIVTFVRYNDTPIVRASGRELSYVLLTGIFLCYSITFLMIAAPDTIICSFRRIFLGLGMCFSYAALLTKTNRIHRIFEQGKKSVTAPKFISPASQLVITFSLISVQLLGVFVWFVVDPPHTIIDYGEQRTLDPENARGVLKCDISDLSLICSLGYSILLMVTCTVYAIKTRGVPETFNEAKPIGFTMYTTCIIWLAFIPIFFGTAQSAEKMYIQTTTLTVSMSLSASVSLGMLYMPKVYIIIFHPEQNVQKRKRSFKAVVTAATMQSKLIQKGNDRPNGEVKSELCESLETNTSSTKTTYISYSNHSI

| SMILES | z-score |
| --- | --- |
| Cc1cccc(Oc2sc(C(=O)c3ccccc3)c(N)c2C#N)c1 | 0.0116 |
| COc1cc2c(cc1OC)C(c1ccccc1O)N(C1CC(=O)N(c3ccccc3)C1=O)CC2 (stereo not drawn) | -0.0768 |
| CCCC(C)c1nnc(NC(=O)C2CCCO2)s1 (stereo not drawn) | -0.319 |
| CCN1CCN(S(=O)(=O)c2cccc([N+](=O)[O-])c2)CC1 | -0.573 |
| Cc1[nH][nH]c(=O)c1N=Nc1ccccc1 | 1.02 |
| Cc1nccn1CCc1nc(N)nc(N)n1 | active: 7.57 |
| COc1ccc(/C=N\NC(=O)c2ccc(=O)[nH]n2)cc1O | 0.0149 |
| CCN(CC)S(=O)(=O)c1cccc(C(=O)NCCc2ccccc2)c1 | -0.166 |
| c1ccc(Sc2cccc3ccccc23)c(CNC2=NCCN2)c1 | 0.832 |
| COC(=O)c1ccc(C)c(NC(=O)c2ccc(Cl)c([N+](=O)[O-])c2)c1 | 1.44 |
| Cc1cc(OC(=O)c2c(Cl)cccc2Cl)nc(C)n1 | 0.102 |
| CC1(C)CC(=O)C=C(NNC(=O)C2CCCCC2)C1 | 0.121 |
| CCOc1cc(/C=C2/NC(=O)N(CC(=O)Nc3cccc(C)c3)C2=O)ccc1OC | -0.292 |
| CC1=NN(c2ccc(C)cc2)C(=O)/C1=C\c1ccc(Br)s1 | -0.327 |
| Cc1cnn(CCC(=O)NNC(=S)Nc2ccc(F)cc2)c1 | 0.0789 |
| Cc1ccc(N/N=C(/Sc2nnnn2-c2ccccc2)C(=O)c2ccccc2)cc1 | 0.5 |
| Cc1cc(C)c(S(=O)(=O)Nc2cccc(/C=C/C(=O)O)c2)c(C)c1 | -0.369 |
| CCOC(=O)CSc1cc(CSc2ccccc2)nc(-c2ccccc2)n1 | active: 4.85 |
| O=C1C2ON(c3ccccc3)C(c3ccncc3)C2C(=O)N1c1ccccc1 (stereo not drawn) | -0.179 |
| COc1ccc(OC)c(CN(CCN2CCOCC2)C(=O)Nc2cccc(Cl)c2)c1 | -0.649 |
| CCOC(=O)c1ccc(NC(=S)N2CCC(C(N)=O)CC2)cc1 | -0.137 |
| CC(C)NC(=O)c1cc(-c2ccco2)nn1-c1ccc(Cl)cc1 | -0.693 |

| SMILES | z-score |
| --- | --- |
| C[n+]1c2n(c3ccccc31)N=C(c1ccc(Br)cc1)CS2 | 1.16 |
| O=C(Nc1ccccc1)N1CCN(c2ncccn2)CC1 | 0.67 |
| Cc1ccc(NC(=O)CN(C)Cc2nc3ccccc3c(=O)[nH]2)c(Br)c1 | -0.0717 |
| CC(C)C(=O)N1CCC(c2nc(-c3ccc(S(=O)(=O)N4CCCC4)cc3)no2)CC1 | -0.431 |
| Cc1ccc(C(=O)N2CCN(c3ccc([N+](=O)[O-])c(NCc4ccco4)c3)CC2)cc1 | -0.504 |
| COc1ccccc1NC(=O)NCCN1C(=O)C2C3C=CC(C3)C2C1=O (stereo not drawn) | 0.322 |
| Cc1cccc(NC(=S)NC(=O)c2cccs2)n1 | active: 5.04 |
| COc1ccc(S(=O)(=O)Nc2cccc(/C=C/C(=O)O)c2)cc1 | 0.898 |
| CCNc1nc(CSc2ccccc2)nc2sc(C)c(C)c12 | -0.00743 |
| CCOC(=O)N1CCC(NC(=O)c2ccc(CS(=O)(=O)c3ccc(OC)cc3)o2)CC1 | -0.141 |
| O=C(NCCc1ccccc1)c1ccco1 | -0.2 |
| C=CCn1c(SCC(=O)NCCOC)nnc1-c1cc2c(s1)CCC(CC)C2 (stereo not drawn) | -0.842 |
| CC(CC(=O)NC1CCSC1=O)c1ccccc1 (stereo not drawn) | -0.254 |
| CC(=O)C1=C(O)C(=O)N(CC(=O)O)C1c1ccccc1Cl (stereo not drawn) | -0.435 |
| CCn1c(-c2csc3c2CCCC3)n[nH]c1=S | -0.181 |
| O=C(NC1CCCC1)C1CCCN1C(=O)Nc1ccccc1Cl (stereo not drawn) | -0.484 |
| COc1cc2c(cc1OC)-c1cc(N3CCCc4ccccc43)nc(=O)n1CC2 | -1.3 |
| COc1ccc(CC(NC(C)=O)C(=O)NC2CCN(S(=O)(=O)c3cccc4ccccc34)CC2)cc1OC (stereo not drawn) | -0.225 |
| CCNC(=S)NNC(=O)c1csc2ccccc12 | -0.0433 |
| CSc1ccc(NC(=O)NCCCN2CCN(c3ccccc3F)CC2)cc1 | 0.559 |
| Cc1ccc(NC(=O)C(Cc2ccccc2)NC(=O)c2ccco2)cc1 (stereo not drawn) | 0.364 |
| CC(C)c1ccc(-c2nc3c([nH]2)c(=O)n(C)c(=O)n3C)cc1 | 0.107 |

| SMILES | z-score |
| --- | --- |
| CC(C)(C)NC(=O)NC(=O)COC(=O)c1ccc(OC(F)F)cc1 | 1.67 |
| N#Cc1c(Nc2ccc(F)cc2)sc(C(=O)c2ccccc2)c1N | -0.225 |
| COc1ccc(S(=O)(=O)N2CCCN(CC(=O)Nc3cc(NC(C)=O)ccc3OC)CC2)cc1 | 0.121 |
| c1ccc(-c2cc3nccc(-c4ccccn4)n3n2)cc1 | -0.281 |
| COc1ccc(-c2nnn(CC(=O)N(CC(=O)NC3CCCC3)c3cccc(C)c3)n2)cc1OC | -1.72 |
| COc1cc(CNCCc2ccccc2)ccc1OCC(=O)NC(C)(C)C | 0.486 |
| Cc1cc(C)c(C)c(C(=O)COC(=O)CNC(=O)CN2C(=O)c3ccccc3C2=O)c1C | 0.0426 |
| C=CCO/N=C(/C)c1c(O)c(CC)c(-c2ccccc2)n(-c2ccccc2)c1=O | -0.266 |
| COc1ccc(CCNC(=O)Cn2cnc3ccccc3c2=O)cc1OC | -0.146 |
| CC(C)OC(=O)c1c(NS(=O)(=O)c2ccccc2)sc2c1CCCC2 | active: 12.3 |
| CCOC(=O)N1CCN(c2c(N3CCc4ccccc43)c(=O)c2=O)CC1 | -0.0585 |
| Cc1ccc(Cn2cc(SCC(=O)Nc3nccs3)c3ccccc32)cc1 | 1.02 |
| Cn1nnc2cc(C(=O)N3CCC(c4ccccc4)C3)ccc21 (stereo not drawn) | 0.464 |
| COc1cc(/C=C(\NC(=O)c2ccccc2)C(=O)Nc2cccc(O)c2)c([N+](=O)[O-])cc1OC | -0.13 |
| N#C/C(C(=O)N1CCOCC1)=C1/SC=C(c2ccccc2)N1c1ccccc1 | 0.399 |
| O=C(c1cc2c(s1)CCCC2)N1CCN(S(=O)(=O)c2ccccc2C(F)(F)F)CC1 | -0.466 |
| CCCNCc1cc(Br)ccc1OCC(=O)NCCc1ccccc1 | 0.565 |
| CC(C)N(C(=O)COC(=O)c1ccc(O)cc1)C(C)C | 0.325 |
| CCCCn1nnnc1SCC(=O)Nc1ccc(N(C)C)cc1 | -0.0579 |
| CC1=C(C(N)=O)C(c2cccnc2)n2nc(SCc3ccccc3Cl)nc2N1 (stereo not drawn) | 0.11 |
| c1ccc(OCCn2c(-c3ccco3)nc3ccccc32)cc1 | -1.09 |
| CCC(=O)N1CCCc2cc(S(=O)(=O)N3CCN(c4ccccc4F)CC3)ccc21 | -1.13 |

| SMILES | z-score |
| --- | --- |
| COc1ccc(S(=O)(=O)N2CCN(Cc3ccc4c(c3)OCO4)CC2)c2ccccc12 | -0.431 |
| CC(=O)c1c(C)[nH]c(C(=O)COc2cc(C)cc(C)c2)c1C | active: 4 |
| COc1cc(NC(=O)C2CCCN(S(=O)(=O)c3cnc[nH]3)C2)cc(OC)c1 (stereo not drawn) | -0.0378 |
| CCOC(=O)c1nnn(-c2nonc2N)c1CN(C)C1CCCCC1 | 1.29 |
| CCOC(=O)c1cn(CC)c2cc(N3CCCCC3)c(F)cc2c1=O | -0.264 |
| COc1cc(/C=N/NC(N)=O)cc(Br)c1OCc1ccc(C)cc1 | -0.00475 |
| c1ccc2oc(Cc3ccc(Cc4nc5ccccc5o4)cc3)nc2c1 | 0.0437 |
| Cn1c(OCc2ccco2)nc2c1c(=O)n(Cc1ccc(Cl)c(Cl)c1)c(=O)n2C | -0.716 |
| Cc1cc(NC(=O)CCN2C(=O)C3C4C=CC(C4)C3C2=O)c2ccccc2n1 (stereo not drawn) | -0.214 |
| O=C(O)CCCCCN1C(=O)CCC1=O | 0.242 |
| CCn1c(SCc2nc(CC(=O)Nc3ccccc3OC)no2)nnc1-c1cccs1 | -0.0939 |
| O=C(COc1ccc2ccccc2c1)N1c2ccccc2Sc2ccccc21 | -0.195 |
| COc1ccc2[nH]c(=O)c(CN(CCO)C(=O)c3cccs3)cc2c1 | 0.408 |
| COc1ccc2c(c1)[nH]c1c(N3CCN(Cc4ccc5c(c4)OCO5)CC3)ncnc12 | -0.61 |
| CCCS(=O)(=O)N1CCCC(C(=O)NCCc2ccc(Cl)cc2)C1 (stereo not drawn) | 0.0651 |
| COc1ccc(C(C)(C)C)cc1NC(=O)COC(=O)c1ncc(Cl)c(Cl)c1Cl | 0.0425 |
| CCCOc1ccc2oc(=O)c3c(c2c1)CCCN3C(=O)CN1CCN(c2ncccn2)CC1 | -1.13 |
| Clc1ccc(COc2ccccc2CNCc2cccnc2)cc1 | -0.283 |
| Cc1csc(C(C#N)C(=O)c2cc3ccccc3o2)n1 (stereo not drawn) | -0.339 |
| NC(=O)c1ccc(NC(=O)COC(=O)c2cccc(Oc3ccccc3)c2)cc1 | -0.163 |
| O=C(c1cccs1)N1CCc2c([nH]c3ccccc23)C1c1ccc(Cl)cc1 (stereo not drawn) | -0.195 |
| CCCCn1c(C(C)NC(=O)COC)nc2ccccc21 (stereo not drawn) | 0.106 |

| SMILES | z-score |
| --- | --- |
| COc1cc(C(=O)OCC(=O)NC2CCS(=O)(=O)C2)ccc1OCc1c(C)noc1C (stereo not drawn) | 0.0931 |
| CCOc1ccccc1NC(=O)COC(=O)c1cc(C(=O)OC)cc([N+](=O)[O-])c1 | -0.184 |
| Cc1ccc(C(C(=O)NC2CCCCC2)N2CCC3(CC2)OCCO3)cc1 (stereo not drawn) | 0.171 |
| COc1ccc(CSc2nnc(CNS(C)(=O)=O)o2)cc1 | 0.953 |
| O=C(NC(NC(=S)Nc1c(Cl)cccc1Cl)C(Cl)(Cl)Cl)c1cccc([N+](=O)[O-])c1 (stereo not drawn) | -0.258 |
| Cc1ccc(N/C(SCc2ccccc2C)=C(/C#N)C(=O)NCc2ccco2)cc1C | -0.331 |
| O=C(NC1CCCCC1)c1cccc(S(=O)(=O)N2CCOCC2)c1 | -0.092 |
| COC(=O)c1ccccc1NC(=O)/C=N/O | -0.42 |
| CCc1ccc(NC(=O)CSc2nnc(Cc3cccn3C)n2-c2ccc(OC)cc2)cc1 | -0.16 |
| COc1cc(NS(=O)(=O)c2ccc(NC(C)=O)cc2)ncn1 | 0.373 |
| COc1ccccc1NC(=O)COc1ccc(C(=O)OCC(=O)N(C(C)C)C(C)C)cc1OC | -0.432 |
| Cc1cc(=O)oc(C)c1C(=O)Nc1ccc2ncccc2c1 | -0.12 |
| O=C(NCc1ccccn1)c1cccc(NS(=O)(=O)c2cccc(F)c2)c1 | -0.306 |
| CN(C)CCOC(=O)Cc1ccc(Cl)cc1 | 0.164 |
| CCOc1ccc(OCC)c(S(=O)(=O)N2CCCCC2C)c1 (stereo not drawn) | -0.14 |
| Cc1ccc(SCc2nc(-c3ccccc3)no2)cc1 | 0.242 |
| Cc1onc(-c2ccccc2Cl)c1C(=O)NCc1ccc(N2CCCC2=O)cc1 | 0.231 |
| O=C(Nn1c(=S)[nH]c2ccccc2c1=O)c1ccncc1 | 0.643 |
| O=C(O)COc1c(-c2ccccc2)oc2ccccc2c1=O | -0.158 |
| CN1CCN(c2nc(N3CCN(c4ccccc4)CC3)ncc2F)CC1 | 0.0781 |
